Assay results as given in article PMC7311171 (2020).
Results are given in words; binding and its absence hold for the method and conditions named. For some assays here: Binding seen in cells or lysates may run through a third protein. Some results given as binding are weak or reduced against the parent protein; the word gives no strength. For some assays here: Where a sequence is shown, tags or fusion partners need not be part of it.

Sequences of proteins named here, by UniProt entry; tags and fusion partners are left off. A change or cut given only in a name is not applied to a line headed by its entry. Residues count along the entry.
SMO^Ctail, yeast two-hybrid construct (P56726, residues 543-793): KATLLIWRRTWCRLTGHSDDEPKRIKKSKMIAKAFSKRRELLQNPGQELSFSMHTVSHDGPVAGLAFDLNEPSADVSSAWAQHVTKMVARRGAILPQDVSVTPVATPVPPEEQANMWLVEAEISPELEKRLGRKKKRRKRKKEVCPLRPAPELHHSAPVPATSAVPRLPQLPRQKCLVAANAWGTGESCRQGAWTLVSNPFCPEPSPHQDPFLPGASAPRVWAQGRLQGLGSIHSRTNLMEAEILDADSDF
SMO^Ctail with the first 10 amino acids deleted, yeast two-hybrid construct (P56726, residues 553-793): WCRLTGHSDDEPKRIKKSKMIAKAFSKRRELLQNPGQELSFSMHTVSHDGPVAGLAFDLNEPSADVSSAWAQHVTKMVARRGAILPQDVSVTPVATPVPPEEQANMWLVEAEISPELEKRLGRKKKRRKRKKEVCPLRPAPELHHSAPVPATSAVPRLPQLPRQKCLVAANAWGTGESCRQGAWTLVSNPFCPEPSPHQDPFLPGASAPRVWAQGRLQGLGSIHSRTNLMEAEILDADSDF

T1: GST-SMO^H8 (GST fused to the first 19 amino acids of SMO^Ctail, aa 543–559) (mouse) (UniProt P56726)
T1 sequence: KATLLIWRRTWCRLTGH

T2: BBS2^C (residues 324–712), yeast two-hybrid construct (UniProt Q9BXC9)
T2 sequence: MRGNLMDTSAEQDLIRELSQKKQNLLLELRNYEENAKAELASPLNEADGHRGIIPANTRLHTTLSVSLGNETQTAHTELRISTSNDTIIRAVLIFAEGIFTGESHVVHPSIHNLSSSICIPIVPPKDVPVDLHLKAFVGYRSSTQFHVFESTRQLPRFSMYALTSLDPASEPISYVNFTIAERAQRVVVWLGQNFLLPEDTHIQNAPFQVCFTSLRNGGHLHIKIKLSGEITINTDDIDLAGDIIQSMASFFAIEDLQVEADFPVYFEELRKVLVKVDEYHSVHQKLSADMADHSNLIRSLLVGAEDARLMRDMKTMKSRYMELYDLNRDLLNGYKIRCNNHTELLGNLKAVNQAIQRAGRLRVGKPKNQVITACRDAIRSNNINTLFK

B1: BBS5, in vitro translated, tagged with a 6xMyc epitope (protein, UniProt Q8N3I7 1-341)
chain: MSVLDALWEDRDVRFDLSAQQMKTRPGEVLIDCLDSIEDTKGNNGDRGRLLVTNLRILWHSLALSRVNVSVGYNCILNITTRTANSKLRGQTEALYILTKCNSTRFEFIFTNLVPGSPRLFTSVMAVHRAYETSKMYRDFKLRSALIQNKQLRLLPQEHVYDKINGVWNLSSDQGNLGTFFITNVRIVWHANMNDSFNVSIPYLQIRSIKIRDSKFGLALVIESSQQSGGYVLGFKIDPVEKLQESVKEINSLHKVYSASPIFGVDYEMEEKPQPLEALTVEQIQDDVEIDSDGHTDAFVAYFADGNKQQDREPVFSEELGLAIEKLKDGFTLQGLWEVMS
B2: BBS7, in vitro translated, tagged with a 6xMyc epitope (protein, UniProt Q8IWZ6-2 1-672)
chain: MDLILNRMDYLQVGVTSQKTMKLIPASRHRATQKVVIGDHDGVVMCFGMKKGEAAAVFKTLPGPKIARLELGGVINTPQEKIFIAAASEIRGFTKRGKQFLSFETNLTESIKAMHISGSDLFLSASYIYNHYCDCKDQHYYLSGDKINDVICLPVERLSRITPVLACQDRVLRVLQGSDVMYAVEVPGPPTVLALHNGNGGDSGEDLLFGTSDGKLALIQITTSKPVRKWEIQNEKKRGGILCIDSFDIVGDGVKDLLVGRDDGMVEVYSFDNANEPVLRFDQMLSESVTSIQGGCVGKDSYDEIVVSTYSGWVTGLTTEPIHKESGPGEELKINQEMQNKISSLRNELEHLQYKVLQERENYQQSSQSSKAKSAVPSFGINDKFTLNKDDASYSLILEVQTAIDNVLIQSDVPIDLLDVDKNSAVVSFSSCDSESNDNFLLATYRCQADTTRLELKIRSIEGQYGTLQAYVTPRIQPKTCQVRQYHIKPLSLHQRTHFIDHDRPMNTLTLTGQFSFAEVHSWVVFCLPEVPEKPPAGECVTFYFQNTFLDTQLESTYRKGEGVFKSDNISTISILKDVLSKEATKRKINLNISYEINEVSVKHTLKLIHPKLEYQLLLAKKVQLIDALKELQIHEGNTNFLIPEYHCILEEADHLQEEYKKQPAHLERLYG
B3: BBS7 βprop (aa 1–332), in vitro translated, 6xMyc (domain or fragment, UniProt Q8IWZ6-2 1-332)
chain: MDLILNRMDYLQVGVTSQKTMKLIPASRHRATQKVVIGDHDGVVMCFGMKKGEAAAVFKTLPGPKIARLELGGVINTPQEKIFIAAASEIRGFTKRGKQFLSFETNLTESIKAMHISGSDLFLSASYIYNHYCDCKDQHYYLSGDKINDVICLPVERLSRITPVLACQDRVLRVLQGSDVMYAVEVPGPPTVLALHNGNGGDSGEDLLFGTSDGKLALIQITTSKPVRKWEIQNEKKRGGILCIDSFDIVGDGVKDLLVGRDDGMVEVYSFDNANEPVLRFDQMLSESVTSIQGGCVGKDSYDEIVVSTYSGWVTGLTTEPIHKESGPGEEL
B4: BBS7^C (BBS7[326-672]), yeast two-hybrid construct (domain or fragment, UniProt Q8IWZ6-2 326-672)
chain: SGPGEELKINQEMQNKISSLRNELEHLQYKVLQERENYQQSSQSSKAKSAVPSFGINDKFTLNKDDASYSLILEVQTAIDNVLIQSDVPIDLLDVDKNSAVVSFSSCDSESNDNFLLATYRCQADTTRLELKIRSIEGQYGTLQAYVTPRIQPKTCQVRQYHIKPLSLHQRTHFIDHDRPMNTLTLTGQFSFAEVHSWVVFCLPEVPEKPPAGECVTFYFQNTFLDTQLESTYRKGEGVFKSDNISTISILKDVLSKEATKRKINLNISYEINEVSVKHTLKLIHPKLEYQLLLAKKVQLIDALKELQIHEGNTNFLIPEYHCILEEADHLQEEYKKQPAHLERLYG

Experiments:
[1] = molecular target: GST-SMO^Ctail (aa 543–793) (mouse) (UniProt P56726); experiment: pull-down; GST-capture: glutathione Sepharose beads saturated with GST fusions; in vitro translated 6xMyc BBSome subunits or fragments in NSC250 buffer (25 mM Tris pH 8.0, 250 mM KCl, 5 mM MgCl2, 0.5% CHAPS, 1 mM DTT), 1 hr, 4°C; elution by PreScission cleavage; anti-Myc blot; only the target purified
[2] = molecular target: T1, GST-SMO^H8 (GST fused to the first 19 amino acids of SMO^Ctail, aa 543–559) (mouse); experiment: as above
[3] = molecular target: SMO^Ctail with the first 10 amino acids deleted, yeast two-hybrid construct (UniProt P56726); experiment: two-hybrid; yeast mated in a 96-well matrix; growth on medium lacking tryptophan, leucine and histidine
[4] = molecular target: T2, BBS2^C (residues 324–712), yeast two-hybrid construct; experiment: as above
[5] = molecular target: SMO^Ctail, yeast two-hybrid construct (UniProt P56726); experiment: as above

Binder | binding [1] | binding [2] | binding [3] | binding [4] | binding [5]
B1 | binds weakly | binds weakly | – | – | –
B2 | binds | binds | – | – | –
B3 | – | binds | – | – | –
B4 | – | – | no binding | binds | binds
